Binding signal (log2 fold change) data for 37 sequences are collected here from article PMC5892938.

This is one part of the list. At the low end of the ranking the order means little.

The target in this assay is GST-SBP-SLBP (stem-loop binding protein) (UniProt Q14493). The experiment in a line: targeted RNA Bind-n-Seq.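 Also: DESeq read counts versus GST-SBP nonspecific binding control pulldown.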 The settings on record: RBNS binding buffer: 25 mM Tris pH 7.5, 150 mM KCl, 3 mM MgCl2, 0.1% Tween, 0.5 mg/mL BSA, 1 mM DTT; 27 nM protein, 750 pM RNA pool; temperature not stated; high values mean tight binding.
For “GGUCACGUCUCAAUCAACUCCCUGGAGGGGGGGAAAACCCCUUUACCCUCAUCAUCAACAGCUCGCAGUCAAG”, the binding signal (log2 fold change) is -0.375.

On to “GGUCACGUCUCAAUCAACUCAAUCUCCAGGGAAAUCCCUGGCAAAUUCAACAGCUCGCAGUCAAG”, for which the binding signal (log2 fold change) was 0.278.

For “GGUCACGUCUCAAUCAACUCUAUUCCAGGAGUUUUCUCCUGUUAAUUCAACAGCUCGCAGUCAAG”, the binding signal (log2 fold change) is -0.0398.

Turning to “GGUCACGUCUCAAUCAACUCUUCAGAGGGGGGGAAAACCCCUUUACCCUCACCGUCAACAGCUCGCAGUCAAG”, the binding signal (log2 fold change) is -0.0645.

“GGUCACGUCUCAAUCAACUCAACUUCAGGAGUUUGCUCCUGUAUUCUCAACAGCUCGCAGUCAAG”: the binding signal (log2 fold change) was -0.0213.

Turning to “GGUCACGUCUCAAUCAACUCUACUCCCAGGGAAAUCCCUGGCAAUUUCAACAGCUCGCAGUCAAG”, the binding signal (log2 fold change) was 0.085.

With “GGUCACGUCUCAAUCAACUCAUCGUCAGGAGUUUACUCCUGCUAAUUCAACAGCUCGCAGUCAAG”, the binding signal (log2 fold change) was -0.124.

As to “GGUCACGUCUCAAUCAACUCAUCCCCCAGGGAAAUCCCUGGUUUAUUCAACAGCUCGCAGUCAAG”, the binding signal (log2 fold change) is 0.0964.

Regarding “GGUCACGUCUCAAUCAACUCAUUCUCAGGAGUUUCCUCCUGCAAUUUCAACAGCUCGCAGUCAAG”, the binding signal (log2 fold change) was -0.0851.

With “GGUCACGUCUCAAUCAACUCCUAAGAGGGGGGGAAAACCCCUUUACCCUCAUCAUCAACAGCUCGCAGUCAAG”, the binding signal (log2 fold change) was 0.0605.

Consider “GGUCACGUCUCAAUCAACUCUAUCCCAGGAGUUUCCUCCUGCUAAUUCAACAGCUCGCAGUCAAG”, for which the binding signal (log2 fold change) turned out to be 0.0876.

Turning to “GGUCACGUCUCAAUCAACUCUAUCUCAGGAGUUUUCUCCUGCAAAUUCAACAGCUCGCAGUCAAG”, the binding signal (log2 fold change) came out at 0.017.

For the sequence “GGUCACGUCUCAAUCAACUCUCAAGAGGGGGGGAAAACCCCUUUGCCCUCCAAAUCAACAGCUCGCAGUCAAG”, the binding signal (log2 fold change) was found to be 0.327.

In the case of “GGUCACGUCUCAAUCAACUCAUCAGAGGGGGGGAAAACCCCUUUACCCUCAAUAUCAACAGCUCGCAGUCAAG”, the binding signal (log2 fold change) was -0.0696.

Regarding “GGUCACGUCUCAAUCAACUCAUCUCCCAGGGAAAUCCCUGGCAUAUUCAACAGCUCGCAGUCAAG”, the binding signal (log2 fold change) is -0.114.

With “GGUCACGUCUCAAUCAACUCUACUUCAGGAGUUUCCUCCUGUUUAUUCAACAGCUCGCAGUCAAG”, the binding signal (log2 fold change) is 0.0676.

Regarding “GGUCACGUCUCAAUCAACUCAAUUUCAGGAGUUUACUCCUGCAUACUCAACAGCUCGCAGUCAAG”, the binding signal (log2 fold change) is 0.0541.

For “GGUCACGUCUCAAUCAACUCUUUUCCAGGAGUUUACUCCUGCAUUCUCAACAGCUCGCAGUCAAG”, the binding signal (log2 fold change) was -0.00374.

Consider “GGUCACGUCUCAAUCAACUCAAUCUCAGGAGUUUUCUCCUGCAAACUCAACAGCUCGCAGUCAAG”, for which the binding signal (log2 fold change) amounted to 0.225.

On to “GGUCACGUCUCAAUCAACUCAUUCUCAGGAGUUUCCUCCUGCUUAGUCAACAGCUCGCAGUCAAG”, for which the binding signal (log2 fold change) amounted to 0.151.

Take “GGUCACGUCUCAAUCAACUCAUUUCCCAGGGAAAACCCUGGUUUUUUCAACAGCUCGCAGUCAAG”: the binding signal (log2 fold change) was -0.19.

As for “GGUCACGUCUCAAUCAACUCAUUCCCCAGGGAAAGCCCUGGUAAUCUCAACAGCUCGCAGUCAAG”, the binding signal (log2 fold change) is 0.134.

Regarding “GGUCACGUCUCAAUCAACUCAUCCCCAGGAGUUUUCUCCUGCUUUUUCAACAGCUCGCAGUCAAG”, the binding signal (log2 fold change) is 0.131.

As to “GGUCACGUCUCAAUCAACUCUAUUCCCAGGGAAAACCCUGGCAUACUCAACAGCUCGCAGUCAAG”, the binding signal (log2 fold change) was 0.0666.

Consider “GGUCACGUCUCAAUCAACUCUUUUUCCAGGGAAAUCCCUGGUAUAUUCAACAGCUCGCAGUCAAG”, for which the binding signal (log2 fold change) came out at 0.0067.

As to “GGUCACGUCUCAAUCAACUCAUUCCCAGGAGUUUACUCCUGUAUUUUCAACAGCUCGCAGUCAAG”, the binding signal (log2 fold change) was determined as 0.0921.

“GGUCACGUCUCAAUCAACUCUAUUCCAGGAGUUUACUCCUGCAUACUCAACAGCUCGCAGUCAAG”: the binding signal (log2 fold change) is -0.125.

As for “GGUCACGUCUCAAUCAACUCUAUCCCAGGAGUUUCCUCCUGUUUUCUCAACAGCUCGCAGUCAAG”, the binding signal (log2 fold change) came to 0.237.

In the case of “GGUCACGUCUCAAUCAACUCAUUCCCCAGGGAAAACCCUGGUAUACUCAACAGCUCGCAGUCAAG”, the binding signal (log2 fold change) is 0.0884.

Regarding “GGUCACGUCUCAAUCAACUCCCUAGAGGGGGGGAAAACCCCUUUACCCUCGUAAUCAACAGCUCGCAGUCAAG”, the binding signal (log2 fold change) was -0.29.

For “GGUCACGUCUCAAUCAACUCUUUUCCCAGGGAAAUCCCUGGCUUUCUCAACAGCUCGCAGUCAAG”, the binding signal (log2 fold change) came to 0.0377.

For “GGUCACGUCUCAAUCAACUCUUCCUCAGGAGUUUCCUCCUGUAAUCUCAACAGCUCGCAGUCAAG”, the binding signal (log2 fold change) was found to be 0.0782.

As to “GGUCACGUCUCAAUCAACUCAUCUCCCAGGGAAAGCCCUGGUUAACUCAACAGCUCGCAGUCAAG”, the binding signal (log2 fold change) was -0.0832.

As to “GGUCACGUCUCAAUCAACUCUAUAGAGGGGGGGAAAACCCCUUUGCCCUCAACCUCAACAGCUCGCAGUCAAG”, the binding signal (log2 fold change) is -0.0693.

With “GGUCACGUCUCAAUCAACUCUUUAGAGGGGGGGAAAACCCCUUUGCCCUCCAUAUCAACAGCUCGCAGUCAAG”, the binding signal (log2 fold change) was -0.12.

With “GGUCACGUCUCAAUCAACUCCCAAGAGGGGGGGAAAACCCCUUUGCCCUCCAUGUCAACAGCUCGCAGUCAAG”, the binding signal (log2 fold change) is -0.403.

As to “GGUCACGUCUCAAUCAACUCUAUCUCCAGGGAAAUCCCUGGUUUUUUCAACAGCUCGCAGUCAAG”, the binding signal (log2 fold change) came to 0.074.
